# Measurements: article PMC4336329 (PLoS ONE, 2015)
# The campaign covered roughly 310,000 compounds. About 2,200 (0.71%) showed an effect of 50% or more. Effects have a minus sign here. This is one part of the list.
# Molecular target: human ether-à-go-go-related gene (hERG) potassium channel (human, UniProt Q12809)
# Test: primary screen, population patch clamp on CHO cells stably expressing hERG
# human ether-à-go-go-related gene (hERG) potassium channel, sequence (Q12809 whole entry, looked up): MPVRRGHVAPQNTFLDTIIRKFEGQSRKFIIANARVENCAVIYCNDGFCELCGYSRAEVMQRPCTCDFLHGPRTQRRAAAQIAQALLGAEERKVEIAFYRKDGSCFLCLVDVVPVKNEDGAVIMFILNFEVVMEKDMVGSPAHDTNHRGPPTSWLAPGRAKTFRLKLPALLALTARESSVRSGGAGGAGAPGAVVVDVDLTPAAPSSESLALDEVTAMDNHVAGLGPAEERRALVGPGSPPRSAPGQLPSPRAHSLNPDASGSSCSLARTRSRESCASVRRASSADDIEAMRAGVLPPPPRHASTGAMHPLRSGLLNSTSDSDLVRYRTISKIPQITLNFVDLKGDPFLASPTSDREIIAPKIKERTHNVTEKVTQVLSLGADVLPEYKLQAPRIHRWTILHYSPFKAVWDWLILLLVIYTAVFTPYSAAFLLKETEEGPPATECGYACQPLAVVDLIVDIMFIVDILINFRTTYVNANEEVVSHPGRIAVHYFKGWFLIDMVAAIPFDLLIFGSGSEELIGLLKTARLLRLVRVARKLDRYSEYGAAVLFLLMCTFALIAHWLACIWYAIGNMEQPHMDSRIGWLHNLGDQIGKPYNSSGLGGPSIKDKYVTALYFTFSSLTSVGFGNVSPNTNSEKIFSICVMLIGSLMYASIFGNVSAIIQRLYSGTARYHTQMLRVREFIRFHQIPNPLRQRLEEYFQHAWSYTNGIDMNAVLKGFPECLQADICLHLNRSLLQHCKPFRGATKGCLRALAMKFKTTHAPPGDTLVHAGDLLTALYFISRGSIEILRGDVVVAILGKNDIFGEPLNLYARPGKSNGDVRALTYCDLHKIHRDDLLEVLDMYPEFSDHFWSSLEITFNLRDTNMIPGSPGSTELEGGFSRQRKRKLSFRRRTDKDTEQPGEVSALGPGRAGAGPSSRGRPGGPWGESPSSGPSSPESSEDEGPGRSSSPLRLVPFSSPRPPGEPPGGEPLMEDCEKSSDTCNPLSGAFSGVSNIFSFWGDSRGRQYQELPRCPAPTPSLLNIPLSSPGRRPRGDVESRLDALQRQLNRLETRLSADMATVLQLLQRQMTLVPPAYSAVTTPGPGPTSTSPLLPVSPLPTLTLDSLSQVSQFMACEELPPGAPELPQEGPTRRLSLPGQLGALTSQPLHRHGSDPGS
row,Structure (SMILES),"hERG current change (%, negative = inhibition) at 1uM"
1,Cc1ccc(C(=O)O)cc1N1CCCC1=O,32.6%
2,Cc1cc(OCc2nn[nH]n2)c2c(C)c(Cc3ccccc3)c(=O)oc2c1,2.66%
3,CCC(C)Oc1cc(-c2ccnc(Nc3cccc(Cl)c3)n2)ccn1 (stereo not drawn),-3.86%
4,O=C(c1ccc(CSc2ccccc2)cc1)N1CCN(c2ccccc2)CC1,-7.78%
5,O=C1CSC(c2cccnc2)N1c1ccccc1 (stereo not drawn),8.11%
6,COC(C(=O)Nc1ccnn1C1CCN(C(=O)c2ccc(C=O)cc2)CC1)c1ccccc1 (stereo not drawn),-5.16%
7,O=C(O)c1cc(N/N=C/C=C/c2ccccc2[N+](=O)[O-])ccc1Cl,10.7%
8,Cc1cccc(C(=O)N/N=C/c2coc3ccccc3c2=O)c1,-0.626%
9,CCOc1ccc(NC(=O)NCCN2C(C)CCCC2C)cc1 (stereo not drawn),-8.72%
10,COC(=O)c1ccc(S(=O)(=O)N2CCCN(Cc3ccccc3)CC2)n1C,5.75%
11,CCOc1ccc(Cn2nnc(C(=O)NCCc3ccc(Cl)cc3)c2N)cc1,16.1%
12,CC1Oc2ccccc2N(CC(=O)NC2CC2)C1=O (stereo not drawn),6.4%
13,CCc1nc2n[nH]c(N)c2c2c1CSC(C)(C)C2,-0.598%
14,CC(=O)N1CCC[C@H]1C(=O)O,8.95%
15,COc1ccc(N2CCN(CCC(O)c3ccc4ccccc4c3)CC2)cc1 (stereo not drawn),-45.7%
16,CCc1ccccc1NC(=O)CN1CCN(C(=O)CNC(=O)Cc2cccc3ccccc23)CC1,3.64%
17,Nc1nnc(/C=C/c2cccc([N+](=O)[O-])c2)s1,10.5%
18,COc1cccc(NC(=O)c2cc(-c3ccc(OC)cc3OC)nc3ccccc23)c1,13.8%
19,CN(C)NC(=S)NC(=O)C12CC3CC(CC(C3)C1)C2,9.67%

row,Structure (SMILES),"hERG current change (%, negative = inhibition) at 1uM"
1,NS(=O)(=O)c1ccc(NC(=O)C2CCCO2)cc1 (stereo not drawn),12.4%
2,CC(=O)c1ccc(C(=O)N2CCC(n3nccc3NC(=O)C3CC3)CC2)cc1,0.412%
3,CC(=O)Nc1ccc(C2=NN(CC#N)C(=O)SC2)cc1,13.6%
4,O=C(NCCc1ccc(Cl)cc1)c1cccc(NC2=NC3CS(=O)(=O)CC3S2)c1 (stereo not drawn),13%
5,COc1ccc(OC)c(S(=O)(=O)N/N=C\c2ccc3c(c2)OCO3)c1,14.5%
6,CCN1CCN(c2oc(-c3ccco3)nc2C#N)CC1,9.51%
7,O=C(Cn1nnc(-c2ccncc2)n1)NCCc1ccccc1,9.71%
8,O=C(NCCN1CCOCC1)C1CCN(c2nc3ccccc3o2)CC1,-7.82%
9,C=CCOn1c(-n2nc(C)cc2C)nc2ccccc2c1=O,8.36%
10,CCOC(=O)C(Sc1cc(-c2ccccc2)nc2ncnn12)C(C)=O (stereo not drawn),15.5%
11,CN(C)/C=C(\C=O)c1ncc(C(F)(F)F)cc1Cl,13.4%
12,CC(C)n1cnc2cc(NCc3ccco3)ccc21.Cl,7.77%
13,C=CCn1cc(F)c(=O)n(CC=C)c1=O,10.5%
14,CC1=CC(C)(C)Nc2ccccc21,9.39%
15,COCCNC(=O)CN(C(=O)CCC(=O)Nc1cc(C)on1)c1cccc(C)c1C,10.5%
16,CC(OC(=O)c1cccc(-n2cnnn2)c1)C(=O)Nc1cccc(Cl)c1 (stereo not drawn),6.34%
17,Cc1ccc2c(COC(=O)CNC(=O)c3ccccc3)cc(=O)oc2c1,-19.5%
18,O=c1oc2cc(Cl)ccc2n1CSc1nc2ccccc2s1,11.9%
19,O=C(CN(C(=O)C1CSC(=O)C1)c1cccc(F)c1)NCc1ccc2c(c1)OCO2 (stereo not drawn),7.68%

row,Structure (SMILES),"hERG current change (%, negative = inhibition) at 1uM"
1,CC(C)CCNC(=O)C(c1ccco1)N(Cc1ccccc1)C(=O)c1snc(C(N)=O)c1N (stereo not drawn),-1%
2,O=C(/C=C/c1ccccc1)NCCc1c[nH]c2ccccc12,9.97%
3,COc1ccc(C(=O)CC2(CC(=O)c3ccc(OC)cc3)C(=O)N(C)C(=O)N(C)C2=O)cc1,2.38%
4,Nc1ccc(C(=O)N/N=C/c2sc(N3CCOCC3)nc2-c2ccccc2)cc1,0.432%
5,COC(=O)CCC(=O)OC1(C)C(=O)C=C2C=C(C3CC3)N(C(CO)CO)C=C2C1=O (stereo not drawn),9.43%
6,COc1cc(Nc2ccc(C)cc2)c([N+](=O)[O-])nc1[N+](=O)[O-],8.96%
7,S=C(Nc1ccc(Cl)cc1)c1nc2ccccc2[nH]1,13.7%
8,CCOC(=O)Cc1csc(NC(=O)CSc2nnc(Cc3csc(N)n3)n2C)n1,10.1%
9,CCCn1c(SCC(=O)c2[nH]c(C)c(C(C)=O)c2C)n[nH]c1=O,11.1%
10,CC(C)c1ccc(S(=O)(=O)N2CCN(C(=O)C3CCCCC3)CC2)cc1,8.18%
11,COC(=O)C1=C(c2ccc(F)cc2OCc2ccccc2)C[C@@H]2CC[C@H]1N2C(=O)NCCOc1ccccc1,22.4%
12,Cc1cc(O)c(C(=O)/C=C/c2ccccc2O)c(=O)o1,8.29%
13,O=C(CCNC(=O)C1CCN(S(=O)(=O)c2ccccc2)CC1)NCc1cccc(Cl)c1,-4.2%
14,O=C(CN1CCN(S(=O)(=O)/C=C/c2ccccc2)CC1)Nc1ccc(N2CCOCC2)cc1,20.6%
15,Cc1ccc(-c2cc(N)on2)cc1,11.7%
16,CCN(c1ccccc1)S(=O)(=O)c1ccc(N)cc1,4.68%
17,CC(=O)N1c2ccc(S(=O)(=O)N3CCC(C(=O)Nc4cccc(C(F)(F)F)c4)CC3)cc2CC1C (stereo not drawn),12.2%
18,CCOC(=O)c1c(NC(=O)CSc2nc(C)cc(C)c2C#N)sc(C(C)=O)c1C,10.1%
19,CCOC(=O)N1CCC(NC(=O)CCS(=O)(=O)c2ccc3c(c2)CCN3C(=O)CC)CC1,7.21%
